# This is one part of the list.
# Target: T1, OsWOX13 (Oryza sativa, UniProt Q5QMM3 1-267)
# T1 sequence: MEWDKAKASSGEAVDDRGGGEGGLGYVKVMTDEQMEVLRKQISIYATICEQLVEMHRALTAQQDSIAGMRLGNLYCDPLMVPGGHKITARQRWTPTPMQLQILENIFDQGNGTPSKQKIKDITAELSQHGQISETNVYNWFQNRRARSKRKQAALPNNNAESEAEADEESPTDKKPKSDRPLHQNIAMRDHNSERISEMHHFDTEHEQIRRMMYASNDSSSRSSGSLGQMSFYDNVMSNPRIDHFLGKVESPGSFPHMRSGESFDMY
# Test: protein-binding microarray (RPBM); PBS, 2% BSA, 51.3 ng/ul salmon testes DNA, 50 uM zinc acetate, 200 nM TF, 25 C, 1 h; high values mean tight binding
# Details: protein: recombinant; tags: N-terminal polyhistidine and DsRed monomer fusion (pET32a); label: CyDye5-dUTP incorporated in the synthesized complementary strand; 3' TTTTT single-stranded linker to array surface; dsDNA, one strand shown
# Outline: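 Binding signal is reported as fluorescence intensity per feature (arbitrary units) from an Axon 4000B scanner. Incubation used 200 nM of each Ni–NTA-purified, N-terminally polyhistidine- and DsRed-fused transcription factor from E. coli BL21-CodonPlus on a double-stranded custom Agilent array for 1 h at 25 °C, with 50 µM zinc acetate in the buffer, followed by washing.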
row,Sequence,binding signal
1,GAGATTGATTGCTCTCCGCCAATAATCTTAGCTAGTTTTGCGGAGTCACCTAGTGCAG,41800 fluorescence intensity (a.u.)
2,ACCGGTTTTGACAGATTGGGGACCGGTTGTATCTGGTTTTCGGAGTCACCTAGTGCAG,18600 fluorescence intensity (a.u.)
3,GCCAGGATTGATCACACGGAGTGACTTTTCTCACTAGAGTCGGAGTCACCTAGTGCAG,23200 fluorescence intensity (a.u.)
4,ACTAATTGAGGCGACACCCCAATCATGGGCAAACCGCCACCGGAGTCACCTAGTGCAG,41300 fluorescence intensity (a.u.)
5,TGCTATAGTTATAACCAATAATTTATTCACTACATTTTGTCGGAGTCACCTAGTGCAG,5140 fluorescence intensity (a.u.)
6,AGATCTAATCATGAAAATGTGTTGTGGTACACCCCATATTCGGAGTCACCTAGTGCAG,3190 fluorescence intensity (a.u.)
7,TTCACAAATTGAACATAGAGTACCGTCTCACACGCTGCTCCGGAGTCACCTAGTGCAG,22100 fluorescence intensity (a.u.)
8,TTTGATATAATCAAATTCCACAGCGAACCGATATGTAACGCGGAGTCACCTAGTGCAG,7380 fluorescence intensity (a.u.)
9,ACCCAATCATCTCCTTGTAAAGTTCATTATCCATAGCAATCGGAGTCACCTAGTGCAG,15400 fluorescence intensity (a.u.)
10,TATATATATATATATATATATATATTAGTGGTGCTCCCAACGGAGTCACCTAGTGCAG,8650 fluorescence intensity (a.u.)
11,ATGATTGTGATTTATATTTTGAAATAAAGAGAGTAGTAATCGGAGTCACCTAGTGCAG,50500 fluorescence intensity (a.u.)
12,GTTACATCACTATTAAATTAATTTATTTTAGGGACGAAAGCGGAGTCACCTAGTGCAG,4570 fluorescence intensity (a.u.)
13,CATCACTTCTAATCTAATAATTAATTTGACACCTCCTGTTCGGAGTCACCTAGTGCAG,14000 fluorescence intensity (a.u.)
14,TCTTTAATTTAAATTTCCCGATGTTTCGCCCAGGTTTAAACGGAGTCACCTAGTGCAG,27600 fluorescence intensity (a.u.)
15,GCTTTTGATTGGCCCAGGTAAAGGTTCCAGCCACTTCGCTCGGAGTCACCTAGTGCAG,43300 fluorescence intensity (a.u.)
16,TCATGACAGATCAAAACAAACTGGATTTAATCGATTCGAACGGAGTCACCTAGTGCAG,11100 fluorescence intensity (a.u.)
17,AACGGGTGATTATTGTAGTTCCTCGATCGACAACTCCGACCGGAGTCACCTAGTGCAG,7760 fluorescence intensity (a.u.)
18,CTGTTTGGTTCTTTGATTTATAAATCTCTGTGGTTTACAACGGAGTCACCTAGTGCAG,9950 fluorescence intensity (a.u.)
19,TGTTATTGTCTTATTGACTAATGTATTGTAGGATCATTGTCGGAGTCACCTAGTGCAG,3500 fluorescence intensity (a.u.)
20,GTAGTCAAGATTGAAGTGTGATCAATAGGTGCAGAGATATCGGAGTCACCTAGTGCAG,9770 fluorescence intensity (a.u.)
21,CTTGATTTGGCGATCAGAAAATGCATTCTAATTTTGTTTACGGAGTCACCTAGTGCAG,17600 fluorescence intensity (a.u.)

row,Sequence,binding signal
1,ATTATGTGATAGATTGATCCACAAATATTCAAGGTAAAATCGGAGTCACCTAGTGCAG,30500 fluorescence intensity (a.u.)
2,TATGATTTGACAATGTGGTGTTACAGTAAATATTTACTAACGGAGTCACCTAGTGCAG,21800 fluorescence intensity (a.u.)
3,CGTAAATGAACTGTCAATCGAAATTTAGCGAGATTATGGACGGAGTCACCTAGTGCAG,36700 fluorescence intensity (a.u.)
4,ATGAAACACATAATTTACCTTATATTTGGAATTGAGGGAGCGGAGTCACCTAGTGCAG,8680 fluorescence intensity (a.u.)
5,CTAATTGATTAGTAAACTATTTATATAGGACTGTTGTTTTCGGAGTCACCTAGTGCAG,58300 fluorescence intensity (a.u.)
6,ATATAATAATAGATAGATAGATAGATAGATAGATAGATAGCGGAGTCACCTAGTGCAG,49300 fluorescence intensity (a.u.)
7,GCAATTGATTGTGAAGTATTCCTTTCAGTTCGGCTTGAAGCGGAGTCACCTAGTGCAG,45100 fluorescence intensity (a.u.)
8,ATGGTTTGTACTCTGATTATCTATATAATTCAGGAAATAGCGGAGTCACCTAGTGCAG,5030 fluorescence intensity (a.u.)
9,TTTTAAACAGATGGTTTGCATATCAAAATGTTTAGAACACCGGAGTCACCTAGTGCAG,9430 fluorescence intensity (a.u.)
10,TTAATTGCAGGAATTAGCTACTCGGCCGTACGTTAATCCGCGGAGTCACCTAGTGCAG,8410 fluorescence intensity (a.u.)
11,ATAATTTAATTTAGCACATAATGACTACAAATAGGATTTACGGAGTCACCTAGTGCAG,9020 fluorescence intensity (a.u.)
12,TTCTGATTTGGCGGCGGGAGGGCCCCACCTGTCAGTGAGACGGAGTCACCTAGTGCAG,8160 fluorescence intensity (a.u.)
13,GTTATTCATGATTTATATTCCTAAGGTTTGACTTAAACATCGGAGTCACCTAGTGCAG,7020 fluorescence intensity (a.u.)
14,AAGACCTAATTGCATAAGGTGCACTAGCAGCATATCTATTCGGAGTCACCTAGTGCAG,3430 fluorescence intensity (a.u.)
15,GAGAGAGGTGGATTGATTTGAAGCAGAGCGCAGCAAGCATCGGAGTCACCTAGTGCAG,10700 fluorescence intensity (a.u.)
16,CTAGACATATATATTTATCTAGATTCATTAACATCCATATCGGAGTCACCTAGTGCAG,5320 fluorescence intensity (a.u.)
17,TGCTAATGGCGGCCATAGATTTGTACAAGTATCAGCTGAGCGGAGTCACCTAGTGCAG,4480 fluorescence intensity (a.u.)
18,TATCAGTAAATTATATAAATTTTAAATGTTATGTAGCAAACGGAGTCACCTAGTGCAG,6100 fluorescence intensity (a.u.)
19,CTTACATTAATGCACATAATTTTCTTGAAACTAATAATGCCGGAGTCACCTAGTGCAG,13000 fluorescence intensity (a.u.)
20,GCAGATTGCCTGACAGTTCTGATGAGTTGCTACCGTCATCCGGAGTCACCTAGTGCAG,28700 fluorescence intensity (a.u.)
21,GCGAACTTAATTGCTGCTAGAATGCTGCTGAAATTGGTGACGGAGTCACCTAGTGCAG,8360 fluorescence intensity (a.u.)

# Source: paper PMC7819943, “Rice protein-binding microarrays: a tool to detect cis-acting elements near promoter regions in rice”
